# Measurements from PubChem BioAssay (NCATS).
# Values joined by “and” are separate entries in the source; they are usually repeats but may differ in a detail not shown here. Equal entries are not always repeated. The shares of active, inactive and inconclusive entries below differ from those in the screen. For part of these data: No potency is given beside an inconclusive call; the fits are too rough. Active and inactive are the calls of the source. The call rests on the fitted dose curve; in most records, active means well fitted curve in the direction sought with a large enough effect; inconclusive means small, poorly fitted or top-dose-only effect, or another doubt; inactive means no such curve, though single readings can be large; an effect the other way counts as inactive or inconclusive.
# Legend:
# [1] = qHTS of pediatric cancer cell lines to identify multiple opportunities for drug repurposing: Primary screen for OHS-50 cells (AID 1347103); further: potency means the concentration at half of the fitted maximal effect; nearly all actives have a fitted effect of over 40% in size
# Procedure, shortened: (§1)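 Cells (500-1,000/well) rested 5 h, then received compounds for 48 h; metabolically active cells were measured by CellTiter-Glo luminescence. Final concentrations spanned up to 46 µM (MIPE, 11-point) or 0.59 nM-46 µM (NPC, 8-point) in primary screens, 11-point in follow-ups.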
# [2] = Quantitative High-Throughput drug screen in 47 multiple myeloma cell lines against the NCATS MIPE library collection: Delta47_JCRB cell viability assay (AID 1918925; further: nearly all actives have a fitted effect of over 45% in size; further: potency means the concentration at half of the fitted maximal effect)
# Procedure, shortened: (§2)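 Myeloma cells (500 per well) were exposed to MIPE 4.0 compounds by pin transfer and incubated 48 hours at 37C, 5% CO2. Viability was read as ATP by CellTiter-Glo luminescence, normalised to DMSO (100%) and media-only (0%) wells.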
# [3] = target: Tyrosine-protein kinase Yes (Homo sapiens) (UniProt P07947); assay: qHTS for small molecule inhibitors of Yes1 kinase: Primary Screen (AID 686947); further: nearly all actives have a fitted effect of over 60% in size; further: potency means the concentration at half of the fitted maximal effect
# Procedure, shortened: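 Yes1 (4 nM) preincubated 20 min with compound, then 60 min room-temperature reaction with 0.1 mM ATP and 0.3 mg/mL poly(E4Y) in pH 7.5 Tris, 10 mM MgCl2. ADP measured by ADP-Glo luminescence, normalised to enzyme/no-enzyme controls.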
# [4] = target: Phospholipid hydroperoxide glutathione peroxidase GPX4 (Homo sapiens) (UniProt P36969); assay: Primary qHTS Assay for Inhibitors of Recombinant Selenoprotein Glutathione Peroxidase 4 (GPX4) (AID 1845192); further: nearly all actives have a fitted effect of over 65% in size; further: potency means the concentration at half of the fitted maximal effect
# Procedure, shortened: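 NADPH consumption, followed by fluorescence at 340/450 nm between 0 and 15 min, reports GPX4 activity via coupled glutathione reductase (100 nM). Enzyme 200 nM was pre-exposed to compound 30 min; 0.5 mM cumene hydroperoxide and 1 mM GSH served as substrates.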
# [5] = tested on: Es-2; assay: Primary qHTS to identify gynecologic anti-cancer compounds using libraries of approved drugs and bioactive compounds (AID 1345084); settings: Gynecologic cancer cell panel viability, ATPlite luminescence, 48 h; series mostly up to 57.5 µM; further: nearly all actives have a fitted effect of over 55% in size; further: potency means the concentration at half of the fitted maximal effect; on activity change, negative = cytotoxicity: on the % scale 0 is the no-effect control and ±100 the full control effect
# Procedure, shortened: (§3)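 Measured: luminescence after ATPlite addition (15 min, RT). Exposure: 48 h, 37 C, 5% CO2.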
# [6] = Quantitative High-Throughput drug screen in 47 multiple myeloma cell lines against the NCATS MIPE library collection: Karpas25_ECACC cell viability assay (AID 1918968; further: potency means the concentration at half of the fitted maximal effect; nearly all actives have a fitted effect of over 35% in size)
# Procedure, shortened: as §2
# [7] = Quantitative High-Throughput drug screen in 47 multiple myeloma cell lines against the NCATS MIPE library collection: NCIH929_DSMZ cell viability assay (AID 1918978); further: nearly all actives have a fitted effect of over 35% in size; further: potency means the concentration at half of the fitted maximal effect
# Procedure, shortened: (§4)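 Inhibition of viability over 48 h was scored by ATP content (CellTiter-Glo) in 500-cell wells. Zero and full viability were defined by media-only and DMSO-only wells.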
# [8] = tested on: Tov112D; assay: Primary qHTS to identify gynecologic anti-cancer compounds using libraries of approved drugs and bioactive compounds (AID 1345084); settings: Gynecologic cancer cell panel viability, ATPlite luminescence, 48 h; activity change, negative = cytotoxicity: at 57.5 µM (top of the series); further: nearly all actives have a fitted effect of over 55% in size; further: potency means the concentration at half of the fitted maximal effect; on activity change, negative = cytotoxicity: on the % scale 0 is the no-effect control and ±100 the full control effect
# Procedure, shortened: as §3
# [9] = tested on: C33A; assay: as above; settings: Gynecologic cancer cell panel viability, ATPlite luminescence, 48 h; series mostly up to 57.5 µM
# Procedure, shortened: as §3
# [10] = Quantitative High-Throughput drug screen in 47 multiple myeloma cell lines against the NCATS MIPE library collection: MM1S_ATCC cell viability assay (AID 1918980); further: nearly all actives have a fitted effect of over 45% in size; further: potency means the concentration at half of the fitted maximal effect
# Procedure, shortened: as §4
# [11] = qHTS of pediatric cancer cell lines to identify multiple opportunities for drug repurposing: Confirmatory screen for A673 cells (AID 1347110);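 further: potency means the concentration at half of the fitted maximal effect; cells exposed to compound for 48 h before the viability read; nearly all actives have a fitted effect of over 65% in size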
# Procedure, shortened: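 Cells plated at 500-1,000/well were treated five hours later with multi-point dilutions up to 46 µM final. After two days, CellTiter-Glo was added and luminescence read.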
# [12] = qHTS of pediatric cancer cell lines to identify multiple opportunities for drug repurposing: Confirmatory screen for BT-12 cells (AID 1347112); further: potency means the concentration at half of the fitted maximal effect;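 further: viability read after 48 h of compound exposure; nearly all actives have a fitted effect of over 55% in size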; on activity change, negative = cytotoxic: on the % scale 0 is the no-effect control and ±100 the full control effect
# Procedure, shortened: as §1
# [13] = qHTS of pediatric cancer cell lines to identify multiple opportunities for drug repurposing: Confirmatory screen for LAN-5 cells (AID 1347113); further: potency means the concentration at half of the fitted maximal effect; nearly all actives have a fitted effect of over 65% in size
# Procedure, shortened: as §1
# [14] = qHTS of pediatric cancer cell lines to identify multiple opportunities for drug repurposing: Confirmatory screen for U-2 OS cells (AID 1347122); further: potency means the concentration at half of the fitted maximal effect; nearly all actives have a fitted effect of over 65% in size
# Procedure, shortened: as §1
# [15] = qHTS of pediatric cancer cell lines to identify multiple opportunities for drug repurposing: Confirmatory screen for Rh30 cells (AID 1347126); settings: Rh30 rhabdomyosarcoma cell viability; activity change, negative = cytotoxic: at 45.9 µM (top of the series)
# Procedure, shortened: as §1
# [16] = qHTS of pediatric cancer cell lines to identify multiple opportunities for drug repurposing: Confirmatory screen for Rh18 cells (AID 1347125)
# Procedure, shortened: as §1
# [17] = tested on: JEG-3; assay: Primary qHTS to identify gynecologic anti-cancer compounds using libraries of approved drugs and bioactive compounds (AID 1345084); settings: Gynecologic cancer cell panel viability, ATPlite luminescence, 48 h; series mostly up to 57.5 µM; further: nearly all actives have a fitted effect of over 55% in size; further: potency means the concentration at half of the fitted maximal effect; on activity change, negative = cytotoxicity: on the % scale 0 is the no-effect control and ±100 the full control effect
# Procedure, shortened: as §3
# [18] = qHTS of pediatric cancer cell lines to identify multiple opportunities for drug repurposing: Confirmatory screen for DAOY cells (AID 1347114)
# Procedure, shortened: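 Viability measured as metabolically active cells via CellTiter-Glo luminescence following 48 hours of compound exposure, 11-point dilutions in confirmatory testing. 500-1,000 cells/well plated 5 hours before dosing; controls were DMSO and 2.3 µM bortezomib.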
# Tags describe the fitted curve by direction and shape.
# UniProt P36969, sequence (P36969 whole entry, looked up): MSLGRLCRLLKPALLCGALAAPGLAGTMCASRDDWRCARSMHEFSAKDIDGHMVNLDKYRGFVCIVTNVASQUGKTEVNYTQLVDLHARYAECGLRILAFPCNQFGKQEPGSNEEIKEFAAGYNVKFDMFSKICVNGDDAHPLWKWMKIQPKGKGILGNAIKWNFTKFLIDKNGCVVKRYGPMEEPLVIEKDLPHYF
# UniProt P07947, sequence (P07947 whole entry, looked up): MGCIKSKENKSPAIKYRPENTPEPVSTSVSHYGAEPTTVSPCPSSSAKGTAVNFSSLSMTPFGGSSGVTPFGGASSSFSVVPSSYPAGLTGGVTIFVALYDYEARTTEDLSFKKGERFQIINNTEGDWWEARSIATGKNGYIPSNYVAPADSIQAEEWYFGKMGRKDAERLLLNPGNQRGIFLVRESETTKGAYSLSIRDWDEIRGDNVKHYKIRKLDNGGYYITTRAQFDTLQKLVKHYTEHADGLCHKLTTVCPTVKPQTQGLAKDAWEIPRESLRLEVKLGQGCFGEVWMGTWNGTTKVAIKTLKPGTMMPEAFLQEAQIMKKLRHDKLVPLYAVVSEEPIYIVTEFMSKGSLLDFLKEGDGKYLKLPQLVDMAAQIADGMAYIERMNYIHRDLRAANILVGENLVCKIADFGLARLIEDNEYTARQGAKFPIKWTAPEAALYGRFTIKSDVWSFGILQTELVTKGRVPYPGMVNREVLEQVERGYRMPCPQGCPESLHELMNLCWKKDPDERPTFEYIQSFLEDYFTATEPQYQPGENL
smiles,measurement,setting,value
COc1cc(C(C)C)c2c(c1)S(=O)(=O)N(COc1cc(=O)n3cccc(OCCN4CCCCC4)c3n1)C2=O,Potency,[1],"inconclusive [cytotoxic, single point]"
same,Potency,[2],active: 16.6 µM
CC(=O)O[C@@]12CO[C@@H]1C[C@H](O)[C@@]1(C)C(=O)[C@H](O)C3=C(C)[C@@H](OC(=O)[C@H](O)[C@@H](NC(=O)OC(C)(C)C)c4ccccc4)C[C@@](O)([C@@H](OC(=O)c4ccccc4)[C@H]21)C3(C)C,Potency,[3],inactive
same,Potency,[4],"inconclusive [inhibitor, partial curve]"
same,Potency,[5],"inconclusive [cytotoxic, full curve, poor fit]"
Cc1cc(Nc2nc(N[C@@H](C)c3ncc(F)cn3)ncc2Cl)n[nH]1,Potency,[2],inactive
same,Potency,[6],"inconclusive [cytotoxic, single point]"
same,Potency,[7],"inconclusive [cytotoxic, single point]"
same,Potency,[5],inactive
same,Potency,[8],"inconclusive [cytotoxic, partial curve, poor fit]"
CC(=O)Nc1sc2c(c1-c1nc3ccccc3s1)CNC2,Potency,[4],"inconclusive [inhibitor, single point]"
same,Potency,[6],"inconclusive [cytotoxic, single point]"
same,Potency,[7],active: 16.6 µM
same,Potency,[9],inactive
same,Potency,[5],"inconclusive [cytotoxic, single point]"
same,Potency,[8],inactive
CCN(CC)CCn1c(=O)c(Cc2ccc(OC)cc2)nc2ccccc21,Potency,[4],inactive
same,Potency,[2],"inconclusive [cytotoxic, partial curve, poor fit]"
same,Potency,[6],"inconclusive [rising, full curve, poor fit]"
same,Potency,[7],inactive
same,Potency,[10],inactive
O=S(=O)(N=Cc1c(O)ccc2ccccc12)c1cccs1,Potency,[1],"inconclusive [cytotoxic, partial curve, poor fit]"
same,Potency,[2],"inconclusive [cytotoxic, partial curve]"
COc1cc2nccc(Oc3ccc(NC(=O)NC4CC4)c(Cl)c3)c2cc1C(N)=O,Potency,[1],"inconclusive [cytotoxic, full curve, poor fit]"
same,Potency,[11],"inconclusive [cytotoxic, single point]"
same,Potency,[12],"inconclusive [cytotoxic, partial curve]"
same,Potency,[13],"inconclusive [cytotoxic, single point]"
same,Potency,[14],"inconclusive [cytotoxic, single point]"
same,Potency,[15],inactive
same,Potency,[4],"inconclusive [inhibitor, single point]"
same,Potency,[6],"inconclusive [cytotoxic, partial curve, poor fit]"
O=C(O)c1ccc2cc(-c3ccc(O)c(C45CC6CC(CC(C6)C4)C5)c3)ccc2c1,Potency,[11],active: 2.93 µM
same,Potency,[12],inactive
same,Potency,[14],"inconclusive [cytotoxic, full curve, poor fit]"
same,Potency,[16],"inconclusive [cytotoxic, partial curve]"
same,Potency,[4],"inconclusive [inhibitor, full curve]"
same,Potency,[7],"inconclusive [cytotoxic, full curve]"
same,Potency,[10],active: 1.32 µM
CC[C@H](Nc1ncnc2nc[nH]c12)c1nc2cccc(F)c2c(=O)n1-c1ccccc1,Potency,[3],inactive
same,Potency,[2],active: 5.26 µM
same,"activity change, negative = cytotoxicity",[17],inactive: -10.7% [at 11.6 µM]
CN1CCC(CNc2ccc3ncc(-c4cccc(OC(F)(F)F)c4)n3n2)CC1,Potency,[4],active: 22.7 µM and active: 14.3 µM
CCC(=C(c1ccccc1)c1ccc(OCCN(C)C)cc1)c1ccccc1,Potency,[11],"inconclusive [cytotoxic, single point]"
same,Potency,[12],"inconclusive [cytotoxic, single point]"
same,Potency,[13],"inconclusive [cytotoxic, single point]"
same,Potency,[18],"inconclusive [cytotoxic, single point]"
same,Potency,[14],"inconclusive [cytotoxic, single point]"
same,Potency,[16],"inconclusive [cytotoxic, partial curve, poor fit]"
same,Potency,[2],active: 23.5 µM
C[C@@H]1C[C@H]2[C@@H]3CCC4=CC(=O)C=C[C@]4(C)C3(F)[C@@H](O)C[C@]2(C)[C@@]1(O)C(=O)CO (some centres not stated),Potency,[3],active: 34.5 µM
CC(C)=CCCC(C)=CCCC(C)=CCSc1ccccc1C(=O)O,Potency,[3],"inconclusive [inhibitor, single point]"
C/C(=C\C(=O)Nc1ccccc1C(=O)O)c1ccc2ccccc2c1,Potency,[4],active: 18 µM
CC1=C(/C=C/C(C)=C/C=C/C(C)=C/C(=O)Nc2ccc(O)cc2)C(C)(C)CCC1,Potency,[3],inactive
same,Potency,[9],active: 7.94 µM
same,Potency,[5],"inconclusive [cytotoxic, single point]"
same,Potency,[17],"inconclusive [cytotoxic, single point]"
same,Potency,[8],"inconclusive [cytotoxic, single point]"
